Some of the results follow. The full chains were built here from the parent and the listed change. Inactive controls read about 0.05.
B1: TEV protease; numbered along this chain (parent)
chain: MGESLFKGPRDYNPISSSICHLTNESDGHTTSLYGIGFGPFIITNKHLFRRNNGTLVVQSLHGVFKVKDTTTLQQHLVDGRDMIIIRMPKDFPPFPQKLKFREPQREERICLVTTNFQTKSMSSMVSDTSCTFPSGDGIFWKHWIQTKDGQCGSPLVSTRDGFIVGIHSASNFTNTNNYFTSVPKNFMELLTNQEAQQWVSGWRLNADSVLWGGHKVFMVKPEEPFQPVKEATQL

Variants of: B1
Assay: raw area under fraction-flipped curve 0-4 h after induction (AUC4h, not background-subtracted), DNA-recorder readout of cleavage of the substrate (dimensionless); higher = more cleavage of the substrate by the protease variant
Details: temperature: 34 °C; time window: 0-4 h after rhamnose induction
Protocol: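 In vivo DNA recorder in E. coli TOP10(DE3) ΔrhaA at 34 °C. Each TEVp single-site mutant (parent TEVp 0) is paired with a single-site variant of the 7-mer TEVs (canonical ENLYFQ|S). The substrate sits between flexible linkers in a Bxb1-sfGFP-TEVs-SsrA fusion, so cleavage stabilises Bxb1 and speeds flipping of a recombination array, read by NGS. The value is the raw area under the fraction-flipped curve over 0-4 h after rhamnose induction (AUC4h), with ≥20 reads per time point. It is not background-subtracted; inactive controls average about 0.047.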
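Note: Bxb1 expression induced with 0.2% (w/v) L-rhamnose at OD600 near 0.5, cultures sampled hourly, flipped fraction per protease–substrate barcode pair counted by paired-end Illumina sequencing.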

Variant | area with substrate ECLYFQS | area with substrate EGLYFQS | area with substrate EMLYFQS | area with substrate EVLYFQS | area with substrate EILYFQS | area with substrate EQLYFQS | area with substrate ERLYFQS | area with substrate ESLYFQS | area with substrate EWLYFQS | area with substrate EDLYFQS
Q75M | 0.0949 | 0.0921 | 0.113 | 0.0952 | – | – | – | – | – | –
L190P | 0.0985 | 0.0727 | – | 0.081 | 0.0693 | 0.108 | 0.0831 | 0.0859 | 0.0634 | –
K66A | 0.0912 | – | – | 0.107 | – | – | – | 0.0964 | – | –
I139T | 0.16 | 0.175 | – | 0.167 | – | – | 0.106 | – | – | 0.166
P134R | 0.0805 | – | 0.0867 | 0.0931 | – | – | 0.0914 | 0.0928 | – | –
E195S | 0.146 | 0.0963 | – | 0.127 | 0.0946 | – | 0.0879 | – | – | –
L211N | 0.138 | 0.121 | 0.129 | – | 0.101 | – | – | 0.107 | 0.125 | 0.133
L211I | 0.1 | – | 0.101 | 0.0795 | – | – | – | 0.1 | – | 0.14
F38V | 0.102 | 0.0928 | 0.111 | 0.099 | 0.0805 | – | – | – | 0.0827 | –
T181V | 0.093 | – | 0.101 | 0.0825 | 0.0735 | – | 0.0861 | 0.0888 | – | –
T181C | 0.0986 | 0.0579 | – | – | 0.0983 | – | – | 0.112 | – | –
T181H | 0.0561 | – | – | – | 0.0564 | 0.03 | – | 0.0761 | – | 0.0444
N116F | 0.0622 | – | – | – | 0.103 | 0.0987 | 0.0926 | 0.112 | – | 0.122
Q97W | 0.1 | – | – | – | – | 0.107 | 0.0962 | – | – | –
Q97D | 0.0898 | – | 0.112 | – | – | 0.117 | – | 0.0728 | 0.0929 | 0.118
P93D | 0.0923 | 0.0605 | 0.13 | – | – | – | – | 0.113 | 0.121 | 0.114
G35T | 0.0452 | – | 0.0526 | – | 0.0422 | 0.0452 | – | 0.064 | 0.0394 | 0.0396
G35D | 0.0413 | – | – | – | 0.0407 | – | – | 0.0365 | – | –
H29G | 0.0917 | – | – | 0.0726 | – | – | 0.159 | – | – | –
T119S | 0.116 | – | – | – | – | – | 0.0523 | 0.104 | – | 0.116
V113K | 0.0607 | – | 0.0824 | 0.0676 | – | – | – | 0.0572 | – | –

Variant | area with substrate ECLYFQS | area with substrate EGLYFQS | area with substrate EMLYFQS | area with substrate EVLYFQS | area with substrate EILYFQS | area with substrate EQLYFQS | area with substrate ERLYFQS | area with substrate ESLYFQS | area with substrate EWLYFQS | area with substrate EDLYFQS
P155G | 0.0787 | 0.0457 | 0.0752 | – | 0.0608 | – | 0.0696 | 0.0607 | – | 0.0373
L77R | 0.0533 | 0.0756 | 0.0652 | 0.0612 | 0.0608 | 0.0653 | – | 0.0757 | 0.0555 | –
Q197I | 0.103 | – | 0.143 | 0.1 | 0.108 | – | 0.11 | 0.107 | 0.139 | 0.068
G2T | 0.137 | – | – | – | 0.15 | 0.178 | 0.172 | – | 0.15 | 0.0788
V220S | 0.108 | 0.0921 | 0.118 | – | – | – | – | 0.113 | – | 0.165
R51S | 0.107 | 0.13 | 0.109 | – | – | – | 0.0987 | 0.0984 | – | –
K98V | 0.126 | – | 0.132 | – | – | – | 0.139 | – | – | –
K98R | 0.0994 | – | 0.112 | 0.0973 | 0.107 | 0.0982 | 0.101 | 0.106 | 0.109 | –
I110F | 0.0619 | 0.0528 | 0.0452 | – | 0.0617 | 0.0546 | 0.0528 | 0.0572 | 0.0501 | 0.0535
K148L | 0.0751 | – | 0.0924 | 0.0971 | 0.0911 | – | – | – | – | –
N172V | 0.0594 | – | – | 0.0397 | 0.038 | 0.0664 | 0.0707 | 0.0823 | 0.0682 | 0.0452
G213T | 0.0636 | – | – | – | 0.0655 | – | – | 0.0531 | 0.0538 | 0.0722
E103D | 0.12 | – | 0.088 | – | 0.106 | 0.128 | – | 0.0987 | 0.0882 | 0.151
I15G | 0.0759 | 0.0671 | 0.0676 | 0.0739 | 0.0697 | – | 0.0774 | 0.0817 | 0.0667 | 0.0804
S154A | 0.0982 | 0.089 | 0.107 | 0.0973 | 0.0786 | 0.148 | 0.0584 | 0.0854 | 0.0624 | 0.0948
S154N | 0.136 | 0.0654 | – | – | – | – | – | 0.157 | – | –
S154I | 0.0983 | – | – | 0.11 | – | – | – | – | – | 0.122
N177M | 0.101 | – | 0.125 | – | – | 0.0857 | 0.112 | – | – | –
N177T | 0.151 | – | 0.117 | – | 0.143 | 0.184 | 0.129 | 0.173 | 0.152 | 0.171
F6N | 0.114 | 0.0941 | – | 0.0967 | 0.0988 | 0.109 | 0.109 | 0.0738 | – | 0.163
Y34H | 0.112 | 0.0571 | – | 0.0937 | 0.125 | – | – | 0.113 | – | –

Same assay, conditions: temperature: 34 °C; time window: 0-4 h after rhamnose induction

Variant | area with substrate EPLYFQS | area with substrate EELYFQS | area with substrate EKLYFQS | area with substrate ETLYFQS | area with substrate EYLYFQS | area with substrate ELLYFQS | area with substrate EHLYFQS | area with substrate EFLYFQS
I139T | 0.123 | – | – | – | – | – | – | –
P134R | – | 0.0862 | 0.0933 | 0.1 | 0.0858 | – | – | –
E195S | 0.0865 | – | – | 0.137 | – | – | – | –
L211N | – | 0.181 | – | – | – | 0.151 | – | –
F38V | 0.11 | – | – | – | 0.115 | 0.0607 | – | –
T181V | – | 0 | 0.0747 | – | 0.0831 | 0.0941 | 0.0999 | –
T181H | 0.0504 | – | 0.0834 | – | – | – | – | 0.0654
N116F | – | 0.104 | 0.0827 | – | – | 0.106 | – | –
Q97W | – | 0.113 | 0.142 | – | – | – | – | –
Q97D | – | – | 0.111 | – | – | – | – | –
P93D | 0.111 | 0.109 | – | – | – | 0.0654 | – | 0.103
G35T | 0.0419 | – | 0.0469 | – | – | – | – | –
G35D | – | – | – | – | – | – | – | 0.0534
T119S | – | – | – | – | – | – | – | 0.0892
V113K | 0.0752 | – | 0.0809 | 0.0687 | 0.0672 | – | – | –
P155G | 0.0545 | 0.0619 | 0.0598 | – | 0.0556 | 0.0402 | – | –
L77R | – | 0.11 | 0.0626 | – | – | 0.0779 | – | –

Variant | area with substrate EPLYFQS | area with substrate EELYFQS | area with substrate EKLYFQS | area with substrate ETLYFQS | area with substrate EYLYFQS | area with substrate ELLYFQS | area with substrate EHLYFQS | area with substrate EFLYFQS
Q197I | – | – | 0.132 | – | – | – | – | –
G2T | – | 0.154 | 0.12 | – | – | – | – | –
V220S | – | 0.113 | 0.117 | 0.124 | – | – | – | –
R51S | – | – | – | – | 0.0766 | – | – | –
K98V | – | 0.112 | 0.104 | – | – | – | – | –
K98R | 0.113 | – | 0.114 | – | – | – | 0.139 | –
I110F | 0.0605 | 0.0347 | 0.0521 | – | – | – | 0.0541 | 0.0677
K148L | – | – | – | – | – | 0.0454 | – | –
N172V | 0.0468 | 0.0642 | – | – | – | – | 0.0553 | –
G213T | 0.0693 | 0.0688 | 0.0601 | 0.0599 | – | 0.0718 | 0.0482 | 0.0375
E103D | – | 0.146 | – | – | – | 0.0747 | – | –
I15G | 0.0637 | – | 0.0809 | 0.0485 | – | 0.0509 | – | 0.08
S154A | 0.0961 | – | 0.107 | 0.0772 | 0.109 | – | 0.104 | –
S154I | 0.116 | – | – | – | – | – | – | –
N177M | – | – | – | – | – | – | – | 0.123
N177T | – | – | 0.167 | – | – | 0.149 | – | –
F6N | 0.128 | – | 0.0904 | – | – | – | 0.0976 | –
